Data as given in the supplement of paper PMC3334620.
The full ranking holds about 33,000 sequences; the median of “E-score (-0.5 to 0.5)” is about -0.012, and the highest 2% start at about 0.29. This is one part of the list.

Target: T1, Ybr033w (UniProt P38073)
T1 sequence: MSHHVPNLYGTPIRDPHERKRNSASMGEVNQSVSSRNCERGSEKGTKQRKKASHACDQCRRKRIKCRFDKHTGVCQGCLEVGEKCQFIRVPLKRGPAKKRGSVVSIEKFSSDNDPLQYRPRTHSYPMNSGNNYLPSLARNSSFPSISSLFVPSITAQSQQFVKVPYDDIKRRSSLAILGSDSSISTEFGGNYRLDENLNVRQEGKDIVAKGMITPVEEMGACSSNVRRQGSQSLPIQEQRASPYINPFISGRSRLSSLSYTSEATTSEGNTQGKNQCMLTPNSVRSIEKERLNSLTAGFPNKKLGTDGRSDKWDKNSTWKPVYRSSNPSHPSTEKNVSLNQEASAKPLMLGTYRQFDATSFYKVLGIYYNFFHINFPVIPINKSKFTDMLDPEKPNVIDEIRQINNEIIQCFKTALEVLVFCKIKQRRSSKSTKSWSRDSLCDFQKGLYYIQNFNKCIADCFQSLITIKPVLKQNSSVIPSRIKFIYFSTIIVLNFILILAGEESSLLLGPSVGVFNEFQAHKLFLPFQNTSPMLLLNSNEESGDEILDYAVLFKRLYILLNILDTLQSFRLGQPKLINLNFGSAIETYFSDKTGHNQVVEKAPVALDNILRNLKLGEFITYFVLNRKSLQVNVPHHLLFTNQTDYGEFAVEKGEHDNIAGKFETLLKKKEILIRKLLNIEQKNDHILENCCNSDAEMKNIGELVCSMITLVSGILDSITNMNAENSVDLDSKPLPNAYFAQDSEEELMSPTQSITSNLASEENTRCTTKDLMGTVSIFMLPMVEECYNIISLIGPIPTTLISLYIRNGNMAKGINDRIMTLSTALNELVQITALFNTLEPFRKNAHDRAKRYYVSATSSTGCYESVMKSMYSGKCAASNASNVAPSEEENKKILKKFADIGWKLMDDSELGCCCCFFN
Experiment: PBM E-score (8-mer binding enrichment) (E-score (-0.5 to 0.5)); higher = stronger / more preferred TF binding; most listed sequences are background and not binding sites
Details: protein concentration: 200 nM; construct: GST-full length
Procedure, shortened: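 Detection of bound protein used fluorescent anti-GST, with scans normalised by masliner. The proteins were GST-tagged yeast transcription factors applied at about 100-200 nM to universal all-10-mer Agilent arrays made double-stranded by primer extension. Each ungapped eight-base word, pooled with its reverse complement, was scored with an E-score from the Universal PBM Analysis Suite.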

Row | Sequence | PBM E-score
1 | ATCCGTGG | -0.0187
2 | ATACATTA | 0.229
3 | AGGCGACA | -0.148
4 | GATATGGA | 0.196
5 | AGGTTCGG | -0.185
6 | GCATTTCA | 0.11
7 | AATCCGAA | 0.162
8 | CAGGGAAA | -0.0648
9 | AAGCTGGC | -0.105
10 | AGACCGGC | -0.264
11 | AATGTCCC | -0.159
12 | AGGGGTGA | -0.356
13 | CAAACGGG | -0.0584
14 | CTCGCTGA | -0.133
15 | GCGTAAAC | 0.0736
16 | GAACCGTA | -0.222
17 | CCGCAGCG | -0.0846
18 | ATAAAACG | 0.149
19 | ACTTTGGC | -0.00974
20 | ACTATCGA | 0.0636
21 | GGCACAAC | -0.0942
22 | CAAAGGTA | -0.0471
23 | TGTTCCAA | 0.267
24 | ACTACTGC | -0.0476
25 | CCTCACAC | -0.126

Row | Sequence | PBM E-score
26 | GCATGAGA | -0.0587
27 | CCAACTCA | 0.194
28 | ACATTGAC | 0.0386
29 | GTTCCTAA | 0.125
30 | CGAGCTCC | -0.0992
31 | ACATGTTG | 0.244
32 | GCGAGGGA | -0.223
33 | ACATTTCC | 0.199
34 | CCAAATCC | -0.0471
35 | GATTCAGC | -0.0285
36 | GCCTAGAA | 0.0921
37 | CAATAATG | 0.137
38 | GAAGACAA | -0.0348
39 | TGAAGAAA | 0.134
40 | TCCTATAA | 0.16
41 | CCACATCC | -0.0275
42 | CAGACTGG | -0.0641
43 | CTATCCGA | 0.0774
44 | CAAAAATA | 0.316
45 | GGTTGTAC | -0.0389
46 | GTCGAAAC | 0.0562
47 | ATGAACGC | 0.141
48 | GCCACGCC | -0.269
49 | ATAGCGTC | -0.0496
50 | CTACAGGC | -0.208

Row | Sequence | PBM E-score
51 | CACTTCGA | -0.00432
52 | TATGGACA | 0.0972
53 | AGAACGGC | -0.0173
54 | CCATGAAC | 0.0633
55 | ACGTTCGC | -0.209
56 | ACTGGCTC | -0.146
57 | AATCAACG | 0.157
58 | CAGGTGCG | 0.119
59 | AGGTCCCC | -0.284
60 | AGTCGTGC | -0.189
61 | ATGTTAGC | 0.162
62 | AGTTGCAC | -0.0723
63 | TAGTTAGA | 0.142
64 | ACTCAATC | 0.108
65 | GCCCATCC | -0.319
66 | AATCGGCT | 0.0915
67 | CTTATTAA | 0.17
68 | CAAAGTTC | 0.029
69 | AGTATTCG | -0.0384
70 | CAGGGCAG | -0.204
71 | CATTGTGC | 0.0224
72 | CGGCGGCC | -0.284
73 | TACTAACA | 0.249
74 | CAGGAGAA | 0.241
75 | AATCCGTG | -0.071

Row | Sequence | PBM E-score
76 | CGTGCGGA | -0.147
77 | CTAGGTTC | -0.127
78 | CACAGATG | 0.1
79 | GGTACACA | -0.065
80 | CCTTATCA | 0.0859
81 | GAACCGGC | -0.233
82 | CCTGTGAG | -0.0427
83 | ACACCGCG | -0.151
84 | ACATTCTC | 0.0969
85 | ACCCAGAC | -0.103
86 | GACGAGGC | -0.197
87 | TCTTCCAA | 0.169
88 | TAGCCACA | 0.0256
89 | AACACCTT | -0.0028
90 | AGTAGACT | -0.0063
91 | GACGTTCC | 0.0346
92 | ATAGGTTA | 0.124
93 | GAATACTA | 0.204
94 | CGGTCCTA | -0.295
95 | TGGGGAAA | 0.0688
96 | ACATTGCT | 0.122
97 | CTTGTTGA | 0.193
98 | AATTCTAA | 0.21
99 | AAACATCG | -0.0863
100 | CAGCATAA | 0.152

Row | Sequence | PBM E-score
101 | CATAAAAA | 0.258
102 | CCTAAATC | 0.0625
103 | GGATTCAA | 0.0566
104 | CAGACGCC | -0.195
105 | GCGTTCCA | -0.142
106 | ATTTGCAG | 0.253
107 | CCGCCCAA | -0.228
108 | AGGCGAAG | -0.0699
109 | CCTTGGCC | -0.318
110 | CAGAGGAG | -0.14
111 | CAACGCTC | -0.131
112 | GCGTTTCC | -0.069
113 | AGTCGTAG | -0.141
114 | GCATATTA | 0.14
115 | GTACGTCA | -0.0422
116 | AGCGTGAT | -0.112
117 | GAGTTCTA | 0.021
118 | ATGATTCG | 0.0644
119 | CTACCTTA | -0.0197
120 | TACAGGAA | 0.0821
121 | CCTTTCAC | 0.0584
122 | ATTGGCCG | -0.143
123 | GCGTTACA | 0.0401
124 | GCAGCAGA | -0.0571
125 | ATCTGTGG | -0.1

Row | Sequence | PBM E-score
126 | AGTACTTC | 0.118
127 | GCCCTGTA | -0.0611
128 | GTTTTCTA | 0.276
129 | ATAATCCG | 0.383
130 | GCAAAAAA | 0.284
131 | ATTCCGGA | 0.387
132 | GAAAAAGA | 0.231
133 | TATAATGA | 0.171
134 | CAGGAATC | 0.113
135 | CGTATCCC | -0.155
136 | CGCACCAG | -0.0226
137 | ATTAAGTG | 0.167
138 | GGTTCAAA | 0.0694
139 | AGAACCAG | -0.0518
140 | GCGCCACC | -0.215
141 | GCGCGGGA | -0.168
142 | ATTTCATC | 0.222
143 | TCGCACCA | -0.0242
144 | CGCACGGA | -0.102
145 | GAGATTAC | 0.0931
146 | CTACACCC | -0.269
147 | CGGTCGCC | -0.261
148 | GCGGCCAC | -0.273
149 | ACCACACT | -0.00237
150 | TTACCCAA | 0.0264

Row | Sequence | PBM E-score
151 | CGGTATCC | -0.266
152 | ATAAATAT | 0.396
153 | CTGAGGGC | -0.34
154 | ATAATTGA | 0.265
155 | GACGAAGA | 0.0535
156 | TAGTGCGA | -0.0305
157 | CCCTCGCG | -0.226
158 | TAGCTTGA | -0.0114
159 | CGTGTAAC | 0.0936
160 | ATCCCTCC | -0.0542
161 | AGTGAGAA | 0.125
162 | AGTACCAT | 0.0195
163 | GCTCGCTA | -0.0129
164 | ATAGGAGG | -0.188
165 | TGGAATAA | 0.417
166 | CAGACATG | -0.0854
167 | AGCTACCC | -0.096
168 | ATTATGCC | 0.126
169 | ACAACCGA | 0.0383
170 | CGACCGTC | -0.279
171 | AGCGCGCG | 0.0624
172 | AATTCACT | 0.249
